Test results as given in the DeepSol protein solubility set.

Assay: soluble on expression in E. coli; label from the status in PepcDB or PDB records

Row | Sequence | soluble on expression in E. coli
1 | GPAIAENLYFQSDYFTLFGLPARYQLDTQALSLRFQDLQRQYHPDKFASGSQAEQLAAVQQSATINQAWQTLRHPLMRAEYLLSLHGFDLASEQHTVRDTAFLMEQLELREELDEIEQAKDEARLESFIKRVKKMFDTRHQLMVEQLDNETWDAAADTVRKLRFLDKLRSSAEQLEEKLLDFGAAYSEKVIDHYENPRNVGSFDNNDENVGSGMVGAPACGDVMKLQIKVNDEGIIEDARFKTYGCGSAIASSSLVTEWVKGKSLDEAQAIKNTDIAEELELPPVKIHCSILAEDAIKAAIADYKSKREAK | soluble
2 | SNATAKNLHPLLGEKLNLARIENQHHFQSYLTAESPAYLSQHQVFNKVLFPATGYLEIAAAVGKNLLTTGEQVVVSDVTIVRGLVIPETDIKTVQTVISTLENNSYKLEIFSTSEGDNQQANQWTLHAEGKIFLDSTTNTKAKIDLEQYQRECSQVIDIQQHYQQFKSRGIDYGNSFQGIKQLWKGQGKALGKIALPEEIAGQATDYQLHPALLDAALQILGHAIGNTETDDKAYLPVGIDKLKQYRQTITQVWAIVEIPENTLKGSIKLVDNQGSLLAEIEGLRVTATTADALLK | soluble
